Measured values as given in the supplement of paper PMC4166925.
± gives the standard deviation of the averaged measurements. In all, about 33,000 sequences were measured (“E-score (dimensionless, -0.5 to 0.5)”: median about -0.046, highest 2% from about 0.36 on). This is one part of the list.

System: T1, SpTbr T-box DNA-binding domain (GST fusion)
T1 sequence: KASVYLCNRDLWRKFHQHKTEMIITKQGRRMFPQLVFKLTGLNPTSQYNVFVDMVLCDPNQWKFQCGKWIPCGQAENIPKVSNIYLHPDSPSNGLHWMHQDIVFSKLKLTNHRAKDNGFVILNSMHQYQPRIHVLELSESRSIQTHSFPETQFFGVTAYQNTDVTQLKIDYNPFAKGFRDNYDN
Assay: PBM E-score of 8-mer (E-score (dimensionless, -0.5 to 0.5)); Tbr is Tbrain of the sea star Patiria miniata (Pm) or the sea urchin Strongylocentrotus purpuratus (Sp); higher = stronger binding preference; most listed sequences are background and not binding sites
Settings: the construct has about 5 more residues each side
Procedure: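 Universal protein-binding microarray (Agilent AMADID 016060, 60-bp probes with a 35-bp variable region) incubated with 200 nM GST-fused Strongylocentrotus purpuratus Tbr T-box DNA-binding domain (residues 362-554) in PBS pH 7.5. Scored for every ungapped 8-mer (given with its reverse complement) as E-score (range -0.5 to 0.5; >0.45 counts as bound) and Z-score of median probe intensity. Two replicate arrays (datasets 1 and 2).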
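Note: protein at 200 nM in PBS on universal double-stranded arrays.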

| Sequence | PBM E-score of 8-mer |
| --- | --- |
| ACCCACAG | 0.057 ± 0.09 |
| CGCGAATA | 0.297 ± 0.012 |
| CAGAAATC | -0.117 ± 0.0073 |
| CAGACGTC | -0.2081 ± 0.00061 |
| CCGTGAAC | 0.353 ± 0.0099 |
| CGATTTTA | -0.151 ± 0.033 |
| CAGCGGGA | -0.0421 ± 0.045 |
| AGAAAATC | 0.00758 ± 0.1 |
| ACGATTTC | 0.14 ± 0.037 |
| AGATCGAT | -0.274 ± 0.13 |
| ACACACCG | 0.224 ± 0.013 |
| AGTCTCTG | -0.195 ± 0.048 |
| ATCAAGTC | 0.0467 ± 0.085 |
| GCCGCAAA | -0.0435 ± 0.092 |
| ACCCTAAA | -0.153 ± 0.018 |
| TATTAGAA | -0.1988 ± 0.00061 |
| AGGAAAAA | -0.237 ± 0.011 |
| CCCATGGG | -0.205 ± 0.062 |
| GTATACTA | -0.0786 ± 0.044 |
| ACCATGGG | -0.023 ± 0.087 |
| GCAGGTAC | -0.1938 ± 0.00057 |
| CGTAATGC | -0.14 ± 0.048 |
| AATACCTA | -0.127 ± 0.037 |
| TCAAGAAA | -0.183 ± 0.067 |
| AGAAGCAT | -0.341 ± 0.01 |

| Sequence | PBM E-score of 8-mer |
| --- | --- |
| ATGCTACC | -0.231 ± 0.11 |
| CGCTACAG | -0.00134 ± 0.096 |
| AAAGCGAT | -0.133 ± 0.046 |
| CAAGACGC | 0.0343 ± 0.08 |
| GGAAAAAA | -0.114 ± 0.12 |
| ATTCGATA | -0.00711 ± 0.01 |
| GAGAAAAA | 0.047 ± 0.018 |
| CACCAAGG | 0.156 ± 0.014 |
| TCCGGTAA | -0.127 ± 0.062 |
| GCCGGAAC | -0.128 ± 0.053 |
| ACATTTCA | 0.137 ± 0.032 |
| ATAGTTCA | -0.041 ± 0.015 |
| ATAATGCA | -0.0964 ± 0.06 |
| AATCCCGA | -0.177 ± 0.0089 |
| ACACCCGG | 0.317 ± 0.042 |
| AGTTGCAT | -0.1 ± 0.018 |
| ACAGCAAA | -0.0361 ± 0.094 |
| CGTGGAAA | -0.057 ± 0.079 |
| AGAGCATA | -0.235 ± 0.031 |
| CGCAGCAC | 0.0169 ± 0.017 |
| AATATGGG | -0.0594 ± 0.012 |
| CTTGCTCA | 0.0349 ± 0.022 |
| ACATACAT | -0.111 ± 0.03 |
| ATTCTTGC | -0.271 ± 0.059 |
| GCTCGGAC | -0.231 ± 0.022 |

| Sequence | PBM E-score of 8-mer |
| --- | --- |
| CGTCTGCC | -0.0786 ± 0.027 |
| GTCCACAC | 0.385 ± 0.0075 |
| GATATATC | 0.0937 ± 0.085 |
| ACTGAGTA | -0.102 ± 0.034 |
| CTGGAATA | -0.106 ± 0.026 |
| AAGACCAG | -0.00745 ± 0.01 |
| AACTACGC | 0.0222 ± 0.02 |
| CGTTTAGA | -0.183 ± 0.039 |
| GAGCGCCA | 0.0875 ± 0.013 |
| GTAGCAAC | 0.154 ± 0.041 |
| CACGTTGG | 0.18 ± 0.019 |
| ACGGCGCG | 0.219 ± 0.072 |
| ACTCCATA | 0.00838 ± 0.046 |
| CGTCGACC | -0.0569 ± 0.086 |
| ATAGCCGC | 0.0201 ± 0.052 |
| CACCGCAG | 0.027 ± 0.061 |
| AACAGGCA | -0.117 ± 0.014 |
| GTCACCCA | 0.203 ± 0.0083 |
| CTTACACA | 0.276 ± 0.035 |
| AGTAAAGA | -0.0335 ± 0.12 |
| AATTTATC | -0.0106 ± 0.13 |
| ACCTGGAC | 0.00522 ± 0.073 |
| CTAGATAC | -0.23 ± 0.056 |
| AATCGGAG | -0.187 ± 0.031 |
| CAAGACAA | -0.0526 ± 0.028 |

| Sequence | PBM E-score of 8-mer |
| --- | --- |
| AAAACTAT | -0.0179 ± 0.042 |
| TGCTCCCA | -0.0378 ± 0.021 |
| GGGTGCCA | 0.3739 ± 0.003 |
| CTAGGTCC | -0.1749 ± 0.0009 |
| AGCCACCG | -0.0822 ± 0.14 |
| GAACACCC | 0.116 ± 0.0077 |
| GCGACAGA | 0.241 ± 0.02 |
| AGGTAAAA | -0.0157 ± 0.037 |
| TTGTACAA | -0.0646 ± 0.057 |
| GCAGCTGA | 0.0869 ± 0.011 |
| AATCTTTG | -0.0166 ± 0.07 |
| CTACAAAA | -0.0411 ± 0.0076 |
| GATTCCCC | 0.0126 ± 0.035 |
| AACTGTTG | 0.241 ± 0.017 |
| GAAGTCGA | 0.107 ± 0.051 |
| ATGGTTTG | -0.185 ± 0.047 |
| ATAGCAGA | -0.0763 ± 0.061 |
| AAGCCGCA | 0.0597 ± 0.017 |
| AGCCAAGC | -0.252 ± 0.0039 |
| GCTCTCAA | -0.0174 ± 0.017 |
| GAAAGGCC | -0.158 ± 0.031 |
| GGGAACCA | -0.184 ± 0.02 |
| GGGGACTA | -0.217 ± 0.016 |
| CTGGTACA | -0.063 ± 0.031 |
| CAAAACAG | 0.00426 ± 0.055 |

| Sequence | PBM E-score of 8-mer |
| --- | --- |
| GCGGTGGA | -0.0937 ± 0.012 |
| AGGCGGAT | -0.157 ± 0.09 |
| CCTTACTC | -0.216 ± 0.011 |
| ATTGCGAC | -0.0335 ± 0.048 |
| CACTTCTC | 0.279 ± 0.015 |
| CGGCTGAG | -0.0504 ± 0.033 |
| CTCCCGAG | -0.135 ± 0.03 |
| CGAGTGCA | 0.0405 ± 0.054 |
| AGCTTATC | 0.0177 ± 0.057 |
| CTCGTAAG | -0.0829 ± 0.037 |
| GCATGTAC | -0.203 ± 0.043 |
| GGTGAGCA | 0.228 ± 0.022 |
| CATAGCAA | -0.148 ± 0.032 |
| CGGTACCA | -0.0719 ± 0.0091 |
| CTTTACGA | -0.151 ± 0.019 |
| ATATTAAA | -0.0775 ± 0.025 |
| AAAAAGGA | -0.111 ± 0.064 |
| TGTTAAAA | 0.302 ± 0.075 |
| CCTGAAGC | -0.188 ± 0.022 |
| ACGCAGGC | -0.149 ± 0.011 |
| AAGTCCTG | -0.207 ± 0.043 |
| TAAGGTGA | 0.331 ± 0.021 |
| CGAAGTAG | 0.0791 ± 0.0065 |
| CCTAGGCA | -0.0618 ± 0.034 |
| ACGTTAGC | 0.212 ± 0.0091 |

| Sequence | PBM E-score of 8-mer |
| --- | --- |
| ATGTACTG | -0.136 ± 0.07 |
| CAGTAAAC | -0.0518 ± 0.033 |
| CTCAGGTA | -0.0519 ± 0.084 |
| ACGGCTCC | 0.0729 ± 0.015 |
| ATTAATAC | -0.0371 ± 0.066 |
| GAGGCCTC | -0.124 ± 0.065 |
| ACAACGAC | 0.0238 ± 0.0037 |
| ACGCAGTA | -0.0808 ± 0.017 |
| GGATGTCA | 0.126 ± 0.026 |
| CTCTGCTA | -0.164 ± 0.035 |
| CCGTGAGA | 0.143 ± 0.015 |
| CACGTTTC | 0.274 ± 0.017 |
| ATCACTGG | -0.0934 ± 0.017 |
| ATGCTCAA | -0.192 ± 0.09 |
| ATCTTGCG | 0.0121 ± 0.064 |
| GGACACAA | -0.0795 ± 0.03 |
| CAGTCGCG | 0.187 ± 0.029 |
| CATCATAG | -0.0479 ± 0.071 |
| CCTACCAC | 0.16 ± 0.013 |
| ATAGCGGG | 0.0652 ± 0.067 |
| ATTCCGAA | -0.2854 ± 0.0024 |
| CCCTATCG | -0.136 ± 0.092 |
| ATGGGAAC | -0.109 ± 0.011 |
| ACTTAGTC | -0.122 ± 0.11 |
| TCTAGCAA | 0.0241 ± 0.079 |

| Sequence | PBM E-score of 8-mer |
| --- | --- |
| CGTCCTTC | -0.238 ± 0.019 |
| CGTATAGA | -0.133 ± 0.062 |
| AGAAAGGC | 0.0264 ± 0.02 |
| GCATCTAA | -0.0797 ± 0.077 |
| CACGGAAC | 0.0135 ± 0.049 |
| ACTTAAAT | -0.2 ± 0.014 |
| ACTGTAAG | 0.0246 ± 0.008 |
| TATAGTGA | 0.13 ± 0.064 |
| TCGTAGCA | 0.128 ± 0.038 |
| GTGTTAAC | 0.4543 ± 0.0026 |
| CGCCCACC | -0.0996 ± 0.17 |
| GGAGAGAC | -0.102 ± 0.04 |
| AGCTTGTA | -0.157 ± 0.11 |
| GCCCTACA | -0.239 ± 0.038 |
| ACTTAGAC | 0.0615 ± 0.072 |
| ATAAAGAT | -0.244 ± 0.043 |
| AGCTCCTA | 0.0311 ± 0.0037 |
| CTATGCGC | 0.0171 ± 0.043 |
| CAACCTTC | 0.0149 ± 0.061 |
| AGTAAGCA | -0.0985 ± 0.044 |
| GCTTTTCC | -0.201 ± 0.024 |
| TCTCGCAA | 0.278 ± 0.017 |
